Binding signal data for 22 molecules are collected here from paper PMC12136788.

The chains are these.
T1: UNK ZnF1-3 (human, UniProt Q9C0B0 31-174)
T1 sequence: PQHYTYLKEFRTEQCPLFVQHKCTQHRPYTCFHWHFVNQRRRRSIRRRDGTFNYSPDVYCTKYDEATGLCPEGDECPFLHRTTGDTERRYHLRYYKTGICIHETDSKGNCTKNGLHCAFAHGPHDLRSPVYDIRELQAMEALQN

B1: chr3:148802587:148802588:-_ENSG00000071794_ENST00000310053|hu_mus|hu_hu_hu_mus_False|68_98 (ssRNA)
RNA: GGGAGUUCUACAGUCCGACGAUCUCCAACAACUUGUCCUCUCAAACUUCCAAAUAAAACCAAAUCUACUUCUUCAUCACUCGUUAGGAAGUCAUCUGGAGGAAUAAUGUCUUGGAAUUCAAAAUGUGGCAAGAAAGUUGAGUACAACAGAGGAUUGAGCAUCA
B2: 147807452_147813048_2823_CDS_ENSG00000145868_ENST00000340253|human|control|control (ssRNA)
RNA: GGGAGUUCUACAGUCCGACGAUCAGUGGAUUUAUCUGCUGUCCGCUUCCGUUUCAUGGCGUGACGUGGCUUUGUUUUGGCUACUUCUGACUCAGAUACCAGCAGUACAUGGGACAGUCUGCUCCUGGCCCUGGUUAGGGGCCUCAACAGAGGAUUGAGCAUCA
B3: chr5:144935201:144935202:+_ENSMUSG00000038970_ENSMUST00000041804|mus_mus|FALSE|FALSE (ssRNA)
RNA: GGGAGUUCUACAGUCCGACGAUCCAUUAGAUCAAAUAUUUUUUGGUGACUGGGCAGGUCAUCUGCUUUGUCAAGGUCACUAAAUAGGUUGAAAGGGCUCCCAGGGAUGCUGGUAGCACGUGAGUCCUCGGUAGAGCUGGCUUCCAACAGAGGAUUGAGCAUCA
B4: chr6:38652254:38652255:-_ENSG00000124767_ENST00000373365|hu_hu|hu_hu_hu_mus_False|18_88 (ssRNA)
RNA: GGGAGUUCUACAGUCCGACGAUCCGAGAACUUCAUAGCAGGGAAGUCACAUUUUUGCAGGAGGGUCAGUCCAAGAACCCUCGUAUAAAAAUCCAGGGACUUCUUAGGAUCCUUAAUUCGUAGCAUGGUUUGCUGCAGUAGAAACAACAGAGGAUUGAGCAUCA
B5: chr1:39494564:39494565:+_ENSG00000168653_ENST00000372967|hu_hu|hu_hu_hu_mus_True|58_68 (ssRNA)
RNA: GGGAGUUCUACAGUCCGACGAUCAUGCAUUCGCCUCAUCGUUUUGUACCGAAGCAAGCACUCUUCGAAAUCAUCAUAUUCUAUCUUGCACUCCUUUUUCGCCCGGGUCCCACCGAUCCCGUGUGCACACUCUAUCCACUCUUUCAACAGAGGAUUGAGCAUCA
B6: chr17:35253193:35253194:-_ENSMUSG00000024387_ENSMUST00000025246|mus_hu|motif|central (ssRNA)
RNA: GGGAGUUCUACAGUCCGACGAUCCCUUUUCUUCUACUUUAUUUCAUAUUCCCACCACGAUAACGACUCCUUUAAUUUAAACGGAAAACCAUACAGGGUUCCUGAAAGGGUGGCAAAAAAGAAAGGAAAAGUCAAAGACUGCAGCAACAGAGGAUUGAGCAUCA
B7: 119173889_119174009_6555_3pUTR_ENSG00000110395_ENST00000264033|human|control|control (ssRNA)
RNA: GGGAGUUCUACAGUCCGACGAUCUCAGAAAGGCCAACGGCAAGAAGAGGGACUUAUAGUUUGAGAAGGUCUAUAAUCUUCUGACUUUAAUGACGUGAGGUAGGAGAAUAUUCUGCUUUAUCACCAUUGCUGAACACCUACAAACAACAGAGGAUUGAGCAUCA
B8: chr3:132390928:132390929:+_ENSG00000081307_ENST00000264991|hu_hu|motif|central (ssRNA)
RNA: GGGAGUUCUACAGUCCGACGAUCACUGGCUGCACAAACACCUUCUCGUUUCAGAGUCUUUUCAUCAAUAUUUGCAGCAACGGCAAGUGGUGGAGCACACGCAAAACAAGCAGAUUCUCCAGGAAUUAUAAGCUGUAUAUGCCCCAACAGAGGAUUGAGCAUCA
B9: chr14:103931940:103931941:+_ENSG00000075413_ENST00000216288|hu_mus|motif|central (ssRNA)
RNA: GGGAGUUCUACAGUCCGACGAUCACAAAACGUGUCUAGUUUACUGCCAACAGUAAAUUCAUUGCUAAAACCAAAAUCUGCGGUUUUAAUGUUCAUAUCCGCAUCUAAUAACAGAUUUUCAGCCUUGAGGUCUCUGUGAACAAUCAACAGAGGAUUGAGCAUCA
B10: chr19:36933551:36933552:+_ENSMUSG00000024811_ENSMUST00000025729|mus_mus|FALSE|FALSE (ssRNA)
RNA: GGGAGUUCUACAGUCCGACGAUCAUGGCCUUUAAAUUCAUACGAUAAUCUUUCCUUCAGCUGUGCCGUGGGGGCCAGGUCUAUAGCACUUUUAUUGUGACAGUUCAGCAGGGUUGGAUCUGCCCCGUAACUUAGGAGGAGAGACAACAGAGGAUUGAGCAUCA
B11: chr14:59854306:59854307:+_ENSMUSG00000035469_ENSMUST00000043227|mus_hu|FALSE|FALSE (ssRNA)
RNA: GGGAGUUCUACAGUCCGACGAUCAAUGGGCUCAAGAAAAGCCGUACACCCUUGUUAUGUUCCUACACAAACAACUGUGUCCCAGAUGUGGAAAAAAACAACCUGAUGGUCUUUUACCUGCAGAAUCACAUCACCCGUAGAGCACAACAGAGGAUUGAGCAUCA
B12: chr15:43486971:43486972:+_ENSG00000166946_ENST00000300213|hu_mus|motif|central (ssRNA)
RNA: GGGAGUUCUACAGUCCGACGAUCGAGCGCCUUAAUUCUGUUCAUGCAAUGGUCAACGGCAUUAAUGAGUAAAGGAAUCCAGCGGUCUCCUGGGUGGGGGCUCACGUGACUUGCUUUUGUAAUUUCAAGAGCCUUUAUUAAAACCAACAGAGGAUUGAGCAUCA
B13: chr4:95690885:95690886:+_ENSMUSG00000028572_ENSMUST00000156910|mus_mus|mus_mus_mus_hu_False|38_38 (ssRNA)
RNA: GGGAGUUCUACAGUCCGACGAUCUUUAGAAAAUGUUAAAUACCAUGCUAAAAUAUUUUCAAAGGCUUAUUUUAUUUUACCAGAAGUCACAGGCAAGCAGACACCAUAAGAAUAUAUGAAAAUGAAACUCAACAAUAUAACUGUCAACAGAGGAUUGAGCAUCA
B14: chr15:98516890:98516891:+_ENSG00000140450_ENST00000268042|hu_hu|motif|central (ssRNA)
RNA: GGGAGUUCUACAGUCCGACGAUCAAUAAUAAAAAUAAGAAAGCUUUCAUAGUUAACUUACCAAAAACAUAACGCUUGCCGGUUGUUUCUUACUGUGCAAAACAAAAACAAAGUUUUGCCCACAGAAGGAUUUUGUGCACCAAACAACAGAGGAUUGAGCAUCA
B15: chr10:5944071:5944072:+_ENSMUSG00000019763_ENSMUST00000042251|mus_mus|FALSE|FALSE (ssRNA)
RNA: GGGAGUUCUACAGUCCGACGAUCUCCCCAGCAUCUCUGCAGAGAGCUGGAAAGAAAGGCCACACACUCGCCUUGGCAGUACUAGCAAGCACAGCAUCAGCAAGAUGUCACUGAAUGUGUAUUCUCUGGUGUAGUCGGCCAAGGCAACAGAGGAUUGAGCAUCA
B16: 123525202_123525322_3127_3pUTR_ENSG00000119402_ENST00000608872|human|control|control (ssRNA)
RNA: GGGAGUUCUACAGUCCGACGAUCCUACUGCUUGCUCCCUCUACUCUCUCCCUGAUUGUGACCACUAACAUUUCCACUGCUGAAUCACAAAAUUACCUAACUUUAGAGAGGGAGGAGGACACAAUCUGGCAACCCAGGGACAUGCAACAGAGGAUUGAGCAUCA
B17: chr19:16212804:16212805:+_ENSG00000167460_ENST00000300933|hu_mus|hu_hu_hu_mus_False|1_88 (ssRNA)
RNA: GGGAGUUCUACAGUCCGACGAUCAACAAUUCUGGAGUGAAGGAAAGCAUCAAGGAUGAACAGCAUUAAAGCUCAGUCAGAAGGCACAUGGGCAACAAUGAUCACCCCAGCAUUCUCGCUUGGAAUGCUUAAAGACAGAUGUUUCAACAGAGGAUUGAGCAUCA
B18: 6597745_6597865_437_ncRNA_ENSMUSG00000021196_ENSMUST00000144053|mouse|control|control (ssRNA)
RNA: GGGAGUUCUACAGUCCGACGAUCACAUCAAAAGGAGUUUCAGCAGAAUAGACAAUUUACUGGUUUAAUUUAUCAGAAUUGAGCUAGUCUUGUGCUACAUCUUGCUACCCUGCUAUUCUGUGUUUCAGGACAAUGGGUUUGUGUCAACAGAGGAUUGAGCAUCA
B19: 17162015_17163372_1340_CDS_ENSG00000003987_ENST00000180173|human|control|control (ssRNA)
RNA: GGGAGUUCUACAGUCCGACGAUCUCUUUCUUGAAUCUUGAGUUCUCGUCUCUCCUUUUGGCUGUUACAUAGGAAGUUUCCAAACUGGCAGGAAUAAAUGUGAUGUUGAAUGUGAAUCAAAAACCUCUCAUUGAACUCAAAGGCCAACAGAGGAUUGAGCAUCA
B20: 89368891_89370784_2555_CDS_ENSMUSG00000031652_ENSMUST00000034074|mouse|control|control (ssRNA)
RNA: GGGAGUUCUACAGUCCGACGAUCGUCAAAUGUGCCCACACUUGGCAGGGCAUUGAGUAGCGGCUGCAUGUGUCUAAGAAAGGCCUCCUUUCGAAGAAAUUCUUCUAGCCGAGGUCCGUUUCUUCCCAGAGGGUCAUCAGGAACCAACAGAGGAUUGAGCAUCA
B21: chr9:14812383:14812384:-_ENSMUSG00000031934_ENSMUST00000164273|mus_mus|mus_mus_mus_hu_True|1_48 (ssRNA)
RNA: GGGAGUUCUACAGUCCGACGAUCAUAGCCCAGGUAGAUACACGCUAACAGUAUAAUGAUGAGUGUCAGCAGGCGGCAGCUAAUGUAUUUCAUGAUUAAAUUAUUAGAAUUUUUCUUUGUCUUCAAGUACUGCUCCACGAUUGGCAACAGAGGAUUGAGCAUCA
B22: chr2:198351390:198351391:-_ENSG00000144381_ENST00000345042|hu_hu|hu_hu_hu_mus_False|58_58 (ssRNA)
RNA: GGGAGUUCUACAGUCCGACGAUCUCAUUCCCACCCUCCACAGAAAGGCUGCUUCUGAACUCUCAUGUGGUGACACAGCACUAAAAUCCUGAUGCUCACAGAACAGUAGAGAUGCCUCAGUGAUUUAAGUUGAAAGCAGGACACCAACAGAGGAUUGAGCAUCA

This is one part of the list.

The assay addresses T1, UNK ZnF1-3. Put plainly: nsRBNS (natural sequence RNA bind-n-seq); RBNS binding buffer (assumed for nsRBNS): 25 mM Tris pH 7.5, 150 mM KCl, 3 mM MgCl2, 0.01% Triton X-100, 500 ug/ml BSA, 20 U/ml SUPERase-In, 4 C; UNK is unkempt and MSI1 is Musashi-1; names of the RNAs are library labels; protein concentration not given here; high values mean tight binding.
Molecule B1 had a binding signal of 0.988 enrichment R.

B2 showed a binding signal of 0.591 enrichment R.

Molecule B3 registered a binding signal of 0.749 enrichment R.

In turn, B4 came in with a binding signal of 0.814 enrichment R.

B5 yielded a binding signal of 0.728 enrichment R.

B6: the binding signal came to 1.47 enrichment R.

B7 returned a binding signal of 1.5 enrichment R.

B8: the binding signal worked out at 1.81 enrichment R.

As for B9, the binding signal worked out at 0.589 enrichment R.

Molecule B10 registered a binding signal of 1.04 enrichment R.

B11 came in with a binding signal of 0.971 enrichment R.

For the molecule B12, the binding signal amounted to 1.37 enrichment R.

B13: the binding signal was 1.69 enrichment R.

As for B14, the binding signal is 2.25 enrichment R.

Regarding B15, the binding signal worked out at 0.888 enrichment R.

In turn, B16 showed a binding signal of 0.98 enrichment R.

In the case of B17, the binding signal was determined as 1.63 enrichment R.

B18: the binding signal stood at 1.03 enrichment R.

In turn, B19 returned a binding signal of 1.52 enrichment R.

Take B20: the binding signal was 1.09 enrichment R.

B21 displayed a binding signal of 2.38 enrichment R.

As for B22, the binding signal came out at 1.26 enrichment R.
